In the supplement of paper PMC3334620:
The full ranking holds about 33,000 sequences; the median of “E-score (-0.5 to 0.5)” is about -0.012, and the highest 2% start at about 0.27. Some of the results follow.

molecular target: T1, Vhr1 (UniProt P40522); test: PBM E-score (8-mer binding enrichment) (E-score (-0.5 to 0.5)); higher = stronger / more preferred TF binding; most listed sequences are background and not binding sites; conditions: protein concentration: 200 nM; construct: GST-full length
T1 sequence: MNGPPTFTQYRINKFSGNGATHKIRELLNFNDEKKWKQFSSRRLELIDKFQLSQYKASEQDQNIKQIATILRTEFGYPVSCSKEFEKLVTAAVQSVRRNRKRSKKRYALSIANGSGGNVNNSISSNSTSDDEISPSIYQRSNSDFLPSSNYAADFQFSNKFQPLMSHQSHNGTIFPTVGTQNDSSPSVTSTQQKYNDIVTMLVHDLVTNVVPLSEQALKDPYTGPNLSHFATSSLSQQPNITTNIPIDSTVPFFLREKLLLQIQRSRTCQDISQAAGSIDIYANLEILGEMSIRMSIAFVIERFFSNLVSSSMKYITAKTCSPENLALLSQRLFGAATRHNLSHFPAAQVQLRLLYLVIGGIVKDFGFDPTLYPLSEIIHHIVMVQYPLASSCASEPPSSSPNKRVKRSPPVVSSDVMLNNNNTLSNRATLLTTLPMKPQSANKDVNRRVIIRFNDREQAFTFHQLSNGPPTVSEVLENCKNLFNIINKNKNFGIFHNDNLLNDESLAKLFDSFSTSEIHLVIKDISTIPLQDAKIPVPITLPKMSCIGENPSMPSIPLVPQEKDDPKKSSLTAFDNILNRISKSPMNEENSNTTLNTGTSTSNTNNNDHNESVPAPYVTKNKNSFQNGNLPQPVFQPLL
Procedure, shortened: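 Masliner-normalised scans of fluorescent anti-GST signal were the basis for scoring. That signal came from GST-tagged yeast transcription factors applied at about 100-200 nM to double-stranded universal all-10-mer Agilent arrays on fresh or once-stripped slides. Each ungapped eight-base word, pooled with its reverse complement, received an E-score from the Universal PBM Analysis Suite.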

Sequence | PBM E-score
ACGAGAAC | 0.0182
ACATTTAA | -0.0418
ATGTACGC | -0.12
GCCCGCAC | 0.0853
ACGATATG | 0.181
TACTATAA | 0.191
CAGCAACC | 0.0974
AACGATGA | 0.076
ACCCATAT | 0.296
GTTTACGA | -0.0709
ACTCGGAG | 0.29
CAGGCGCG | 0.0246
CCGCTCCG | 0.0277
CGAGAGCG | -0.118
TATCAAGA | 0.0971
AACGCTTG | -0.00898
ACCTGATC | 0.0739
TGTATAAA | -0.0816
AAACCCTC | -0.191
ACAGAACC | -0.141
CCTCCGAA | -0.266
GAACAGGC | -0.168
AATAGCGA | 0.0648
AAACCACT | -0.125
GCCCGGAC | -0.0583

Sequence | PBM E-score
CTGATTGA | 0.177
ACTCGCTA | 0.133
AATACCTG | -0.138
AATAGGTC | -0.0642
ACCGATTA | 0.0335
ATTCCCAC | 0.037
AATGAGGC | -0.279
GCAATCAC | 0.159
TAGGCAAA | -0.254
AAAGGCGG | -0.0402
GCACTTCC | -0.261
GACCCAAA | 0.0473
GGCAAGAC | -0.138
CGCCACCC | 0.105
TAAGTGAA | -0.0403
ATCACCTG | 0.245
GCCCTCCC | -0.00152
AGCGATAT | 0.0779
CAAAATAC | -0.0801
CCAATTGA | 0.0252
GTTATTCA | 0.0116
ATGCACTA | 0.101
ATGGACAT | 0.0546
CCTCTTTA | -0.25
GTAGTGTA | 0.0691

Sequence | PBM E-score
CCCGTAAG | -0.119
ACCATTTC | 0.109
AACCCATC | 0.169
ACTCTGCA | 0.256
GCGAGCCA | 0.19
CAGATCGG | 0.0719
CGTACAGC | -0.0215
ATTATTGG | -0.0278
GCTAAAGC | -0.225
CCTAGATC | -0.0606
AGTGACAG | 0.0399
GATCAGAA | -0.156
CATTCAGC | -0.161
AAGGGCAA | -0.0617
ATACCCCG | 0.0169
CATGTCCA | 0.16
CTACCCAA | 0.0904
GTCGCGCA | 0.205
CTACAAAG | 0.111
GGCCTGAA | -0.155
GGAAACCA | -0.123
CAATCAAC | -0.0281
ACTTGTCG | -0.0696
AGTTTCTC | -0.163
AAATGTAA | -0.0606

Sequence | PBM E-score
ACAGCGTA | -0.126
GAAGGACA | -0.0903
ACTCTACG | -0.192
AACAGGCG | -0.115
GCGTGGCA | -0.22
ATAATGTA | 0.0729
CAGTGTTA | 0.132
ACCCGACC | -0.00763
GATCGACC | -0.0996
TAGGGCAA | -0.179
CAGTCATA | 0.291
CCGCTTGA | -0.019
CAGCTATG | -0.093
CATGGACA | 0.14
ATACCATA | 0.237
ACGCCCGT | 0.0276
CGTTGAGC | -0.246
TGGACGAA | -0.0312
AAATAACT | 0.109
CATTAAGG | -0.0689
CGACACCG | -0.0812
AGCTATGG | 0.0232
CTGGTGCC | -0.223
CAACCTAA | 0.049
GAAAGGCA | -0.124

Sequence | PBM E-score
GGAGTGGA | -0.188
ACGGCGAA | 0.0608
ATCTGTAC | 0.0611
CATGAAAC | 0.0573
TACGTCCA | -0.155
CCCTGGTA | -0.183
GTCGACGA | -0.0209
ATTCTGCG | 0.0109
AATCTGGC | -0.138
GATGCTCA | -0.00925
AACGAGCG | 0.00203
AAGTCGCG | 0.0758
TAAAATAA | -0.14
CGGACTTC | -0.196
GCTCGACC | -0.0414
ACAGTAAT | 0.158
GGACAGTA | 0.0666
CACCTGAA | -0.0796
CTGCTTTA | -0.00538
TCGGTTCA | -0.102
CACCTATC | 0.0251
CTACCGGA | 0.0224
GCGCAGAC | 0.024
CTCCCGAC | -0.0905
AAGGCTTC | -0.245

Sequence | PBM E-score
ACGCGATG | 0.148
CCAGAAGA | -0.00312
CCTTTCAA | -0.101
CCTACAAG | -0.0583
GAGAGATA | -0.125
ATGATAGA | 0.133
CGACTCTA | 0.225
CCCTGACC | 0.127
CACCACAG | 0.136
ACCAAACA | 0.067
ACAGCCCC | -0.0196
CAGAAATG | -0.168
GGGTGAGA | 0.0877
CGGTTCAG | -0.158
AGTGATCG | -0.0216
ATGAACGG | -0.0246
CTAGCGTC | -0.156
ACTGTATA | 0.056
AGGATCAC | -0.0227
CCCTCAAG | -0.255
CTGACGTA | -0.122
CTCGGTGA | -0.0359
CAAAGAAC | -0.206
ACCTCAAC | -0.101
CCATCAGA | -0.0758

Sequence | PBM E-score
GTATAGAA | -0.103
CATAAGTA | -0.0243
CGCCTGAG | 0.034
GAAATAAA | -0.147
CGACCGCG | 0.00566
ACACACCT | 0.283
AATGGTAA | 0.0643
CAAACTGA | 0.0375
CCACCCCA | 0.16
CGGACGCA | -0.0921
ATATTACG | 0.106
CGCCTCGC | 0.159
CGCCCGTA | -0.171
ACCACGAG | -0.014
AGCTTGTC | -0.112
AATGATCG | 0.0614
ATTTATAG | -0.0555
ATGGGACA | -0.0387
GCACGGCC | 0.0714
ACTATGAT | 0.351
ACATTAGC | -0.144
CATTAGAA | -0.00514
